# The supplement of paper PMC7726561
# Whole data set: some 1,400 sequences, median “thermal melting temperature (Tm) of peptide-HLA complex” near 60, cut for the lowest 2% near 45. Some of the results follow.
# B1: unnamed (peptide)
# chain: VPSEPKLSL
# B2: unnamed (peptide)
# chain: FPRVTTVSEL
# B3: unnamed (peptide)
# chain: QPRDALGDSL
# B4: unnamed (peptide)
# chain: RPTGGVGAVAL
# B5: unnamed (peptide)
# chain: RPSSQYIVAL
# B6: unnamed (peptide)
# chain: RPFGSISRIYL
# B7: unnamed (peptide)
# chain: RPDDKRILEF
# B8: unnamed (peptide)
# chain: APRLASILTSA
# B9: unnamed (peptide)
# chain: GPTWHNLAL
# B10: unnamed (peptide)
# chain: YPRSILTSL
# B11: unnamed (peptide)
# chain: GPMNLRAAF
# B12: unnamed (peptide)
# chain: RPAGPQLFL
# B13: unnamed (peptide)
# chain: APSSPRPALP
# B14: unnamed (peptide)
# chain: VPRPPSLL
# B15: unnamed (peptide)
# chain: SPWLHAPSL
# B16: unnamed (peptide)
# chain: APRTVALTALL
# B17: unnamed (peptide)
# chain: AVILRALSL
# B18: unnamed (peptide)
# chain: RPGWLTVSL
# B19: unnamed (peptide)
# chain: APRLQSEVAEL
# B20: unnamed (peptide)
# chain: IPNLRDSL
# B21: unnamed (peptide)
# chain: APRPLQAGPAM
# B22: unnamed (peptide)
# chain: LPNVGKSSL
# B23: unnamed (peptide)
# chain: APAPAAQRL
# B24: unnamed (peptide)
# chain: SPRLLEVTNTI
# B25: unnamed (peptide)
# chain: RPAPHPLFL
# B26: unnamed (peptide)
# chain: SPNSSILWL
# B27: unnamed (peptide)
# chain: LPRTVTQLV
# B28: unnamed (peptide)
# chain: RPKTPPVVI
# B29: unnamed (peptide)
# chain: QPASFAVSL
# B30: unnamed (peptide)
# chain: LPRVGVGTSF
# B31: unnamed (peptide)
# chain: LPSQKTASL
# B32: unnamed (peptide)
# chain: LPKIPSNATL
# B33: unnamed (peptide)
# chain: HPRDPNLLLSV
# B34: unnamed (peptide)
# chain: QPHLSRQDL
# B35: unnamed (peptide)
# chain: FPSPIRLEF
# B36: unnamed (peptide)
# chain: YPLPSARAL
# Molecular target: HLA-B*07:02
# Test: thermal melting temperature (Tm) of peptide-HLA complex; higher = more thermostable pHLA complex
# Details: C1R-B*07:02
# 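Note: cell lysates heated 10 min at 37–73 °C, remaining pHLA pulled down with pan-class I antibody, peptides quantified by DIA-MS versus 37 °C, Tm where half the complex is lost.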
row,Sequence,thermal melting temperature [°C]
1,B1,61.1
2,B2,58.9
3,B3,52.1
4,B4,50.3
5,B5,58.5
6,B6,54.2
7,B7,52.7
8,B8,62.4
9,B9,62.1
10,B10,63.8
11,B11,62.1
12,B12,61.7
13,B13,60.2
14,B14,61.2
15,B15,54.8
16,B16,62.8
17,B17,61.1
18,B18,59.2

row,Sequence,thermal melting temperature [°C]
1,B19,61.9
2,B20,61.4
3,B21,60.1
4,B22,54.1
5,B23,56.9
6,B24,61
7,B25,60.3
8,B26,61.7
9,B27,45.6
10,B28,59.6
11,B29,62.8
12,B30,60.9
13,B31,57.7
14,B32,60
15,B33,61.8
16,B34,56.2
17,B35,61.9
18,B36,59.5
